# No constants are given. Whether binding was seen depends on the method and setting. For part of these data: Binding seen in cells or lysates may run through a third protein. Some results given as binding are weak or reduced against the parent protein; the word gives no strength.
# Chains of the proteins cited; added tags and fusions are not shown. Lines headed by an entry give the natural chain unless they say otherwise; changes in a name come on top. A line that says so, or that is headed by a name, gives the form on record, which may keep a tag or linker. Residues count along the entry.
# UniProt Q14258: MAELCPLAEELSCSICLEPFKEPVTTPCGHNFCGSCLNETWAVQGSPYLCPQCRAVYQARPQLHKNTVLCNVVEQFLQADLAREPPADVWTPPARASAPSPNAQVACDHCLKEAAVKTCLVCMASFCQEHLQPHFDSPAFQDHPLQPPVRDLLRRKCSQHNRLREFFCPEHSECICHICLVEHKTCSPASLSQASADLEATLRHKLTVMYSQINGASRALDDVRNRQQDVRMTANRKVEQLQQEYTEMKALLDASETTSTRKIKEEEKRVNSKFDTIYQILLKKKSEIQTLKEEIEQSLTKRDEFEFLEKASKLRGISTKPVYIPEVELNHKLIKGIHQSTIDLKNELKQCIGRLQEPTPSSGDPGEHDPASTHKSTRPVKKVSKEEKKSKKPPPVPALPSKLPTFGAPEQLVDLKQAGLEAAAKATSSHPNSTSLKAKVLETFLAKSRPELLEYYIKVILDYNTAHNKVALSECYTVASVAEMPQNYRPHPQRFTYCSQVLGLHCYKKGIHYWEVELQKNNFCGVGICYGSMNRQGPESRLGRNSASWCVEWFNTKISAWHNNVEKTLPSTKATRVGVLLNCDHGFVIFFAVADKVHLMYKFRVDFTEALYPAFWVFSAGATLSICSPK
# Flag-TRIM25(Δ439-630aa): residues 1-438 of Q14258
# UniProt Q61510: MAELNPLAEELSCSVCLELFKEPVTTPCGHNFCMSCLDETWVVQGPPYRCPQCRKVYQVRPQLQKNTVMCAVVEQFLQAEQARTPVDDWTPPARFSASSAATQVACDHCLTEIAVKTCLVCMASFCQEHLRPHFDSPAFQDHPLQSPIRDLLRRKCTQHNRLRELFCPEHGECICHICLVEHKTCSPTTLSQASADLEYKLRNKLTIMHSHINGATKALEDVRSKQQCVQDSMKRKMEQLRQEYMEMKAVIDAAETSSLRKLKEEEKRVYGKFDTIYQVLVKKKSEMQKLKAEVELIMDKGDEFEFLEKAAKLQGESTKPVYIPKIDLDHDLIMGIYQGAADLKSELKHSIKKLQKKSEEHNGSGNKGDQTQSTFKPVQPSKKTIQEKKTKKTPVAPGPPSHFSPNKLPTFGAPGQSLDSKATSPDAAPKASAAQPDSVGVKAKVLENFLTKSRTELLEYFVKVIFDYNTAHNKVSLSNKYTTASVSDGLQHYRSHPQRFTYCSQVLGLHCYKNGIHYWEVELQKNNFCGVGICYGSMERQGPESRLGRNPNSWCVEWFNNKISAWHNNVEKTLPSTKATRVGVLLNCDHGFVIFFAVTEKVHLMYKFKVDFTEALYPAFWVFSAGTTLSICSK
# UniProt Q16222: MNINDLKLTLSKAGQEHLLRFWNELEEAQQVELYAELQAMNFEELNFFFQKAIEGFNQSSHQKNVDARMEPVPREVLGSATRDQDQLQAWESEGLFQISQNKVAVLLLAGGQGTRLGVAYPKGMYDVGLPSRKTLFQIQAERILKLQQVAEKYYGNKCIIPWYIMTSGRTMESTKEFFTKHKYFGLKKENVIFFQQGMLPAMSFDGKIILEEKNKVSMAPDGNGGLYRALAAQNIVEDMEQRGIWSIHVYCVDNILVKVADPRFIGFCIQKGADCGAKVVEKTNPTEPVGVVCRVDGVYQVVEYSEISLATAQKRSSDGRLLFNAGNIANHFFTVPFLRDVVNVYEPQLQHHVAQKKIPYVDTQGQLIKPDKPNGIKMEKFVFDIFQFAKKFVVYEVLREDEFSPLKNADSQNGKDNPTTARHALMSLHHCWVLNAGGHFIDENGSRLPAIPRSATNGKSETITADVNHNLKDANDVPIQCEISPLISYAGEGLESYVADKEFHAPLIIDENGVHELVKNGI
# UAP1 (NM_003115) Human Recombinant Protein (Q16222-2, form named): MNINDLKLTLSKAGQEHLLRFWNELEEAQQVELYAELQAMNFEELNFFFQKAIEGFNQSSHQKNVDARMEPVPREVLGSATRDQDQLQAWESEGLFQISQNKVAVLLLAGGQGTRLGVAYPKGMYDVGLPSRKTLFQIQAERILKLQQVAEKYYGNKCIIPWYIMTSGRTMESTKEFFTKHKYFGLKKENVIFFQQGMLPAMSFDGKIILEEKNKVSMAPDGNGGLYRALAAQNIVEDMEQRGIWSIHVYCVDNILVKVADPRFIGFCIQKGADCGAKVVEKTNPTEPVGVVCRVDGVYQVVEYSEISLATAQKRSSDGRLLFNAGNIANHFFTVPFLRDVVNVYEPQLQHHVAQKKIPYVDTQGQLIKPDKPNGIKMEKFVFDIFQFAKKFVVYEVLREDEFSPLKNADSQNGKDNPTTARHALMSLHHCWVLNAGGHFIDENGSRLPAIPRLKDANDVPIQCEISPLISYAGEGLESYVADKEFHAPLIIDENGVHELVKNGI
# UniProt Q91YN5: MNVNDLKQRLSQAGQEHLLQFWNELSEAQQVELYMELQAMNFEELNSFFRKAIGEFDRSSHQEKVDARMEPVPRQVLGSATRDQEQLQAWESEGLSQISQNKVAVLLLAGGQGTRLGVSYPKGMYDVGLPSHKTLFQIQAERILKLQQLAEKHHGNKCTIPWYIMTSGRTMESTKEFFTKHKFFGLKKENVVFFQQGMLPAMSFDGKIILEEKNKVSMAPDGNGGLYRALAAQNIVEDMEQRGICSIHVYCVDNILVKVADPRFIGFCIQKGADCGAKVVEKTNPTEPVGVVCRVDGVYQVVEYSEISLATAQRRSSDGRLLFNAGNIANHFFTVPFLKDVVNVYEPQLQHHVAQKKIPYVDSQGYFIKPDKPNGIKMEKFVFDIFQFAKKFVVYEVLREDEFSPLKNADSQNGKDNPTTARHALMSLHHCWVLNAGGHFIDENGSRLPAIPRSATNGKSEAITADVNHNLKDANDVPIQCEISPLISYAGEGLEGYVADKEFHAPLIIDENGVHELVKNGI
# UniProt P15104: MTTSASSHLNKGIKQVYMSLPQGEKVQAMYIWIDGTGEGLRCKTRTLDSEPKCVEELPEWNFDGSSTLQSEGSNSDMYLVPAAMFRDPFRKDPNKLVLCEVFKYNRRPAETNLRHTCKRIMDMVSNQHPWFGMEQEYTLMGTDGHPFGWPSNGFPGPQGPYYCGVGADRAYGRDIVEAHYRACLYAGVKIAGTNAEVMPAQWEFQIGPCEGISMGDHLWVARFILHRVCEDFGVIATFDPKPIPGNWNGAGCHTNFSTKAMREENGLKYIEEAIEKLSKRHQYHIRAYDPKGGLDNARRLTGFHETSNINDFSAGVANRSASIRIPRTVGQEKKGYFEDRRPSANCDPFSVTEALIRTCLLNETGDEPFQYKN
# UniProt P15105: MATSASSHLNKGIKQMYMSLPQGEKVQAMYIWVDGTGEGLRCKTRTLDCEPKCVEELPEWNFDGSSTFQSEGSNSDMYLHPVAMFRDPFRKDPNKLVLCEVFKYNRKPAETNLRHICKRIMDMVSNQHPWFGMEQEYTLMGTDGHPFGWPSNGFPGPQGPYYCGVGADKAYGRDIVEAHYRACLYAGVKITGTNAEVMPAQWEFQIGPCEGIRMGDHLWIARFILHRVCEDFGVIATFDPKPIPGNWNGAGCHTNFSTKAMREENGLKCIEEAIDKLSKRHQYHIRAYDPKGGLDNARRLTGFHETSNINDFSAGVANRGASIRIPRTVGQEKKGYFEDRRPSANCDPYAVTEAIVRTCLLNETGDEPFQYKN
# How the values were obtained:
# [1] = biological target: TRIM25 (NM_005082) Human Recombinant Protein (human) (UniProt Q14258); assay: SPR; Biacore T200; recombinant TRIM25 fixed on a Series S CM5 chip; analyte injected at 25 °C, 30 μL/min, 180 s association, 300 s dissociation; regeneration with 10 mM glycine-HCl; both purified
# [2] = biological target: endogenous TRIM25 (not stated (endogenous in BMSCs; mouse and human BMSCs are used in the paper)) (UniProt Q61510); assay: co-IP; endogenous proteins in BMSCs; Pierce IP lysis buffer, antibody overnight at 4 °C, Protein A&G beads, Western blot
# YFP(1-154aa)-TRIM25 = YFP(1-154aa)-TRIM25 (UniProt Q14258); assay: split reporter; bimolecular fluorescence complementation in cells: TRIM25 carrying YFP (aa 1-154) with GLUL or UAP1 carrying YFP (aa 155-238)
# Flag-TRIM25 full-length = Flag-TRIM25 full-length (UniProt Q14258); assay: co-IP; HEK293T cells transfected with Flag-TRIM25 (full-length or truncated), Myc-UAP1 and HA-GLUL; Pierce IP lysis buffer, antibody overnight at 4 °C, Protein A&G beads, Western blot
# Flag-TRIM25(Δ439-630aa) = Flag-TRIM25(Δ439-630aa) (UniProt Q14258); assay: as above
substance,measurement,setting,value
UAP1 (NM_003115) Human Recombinant Protein (from UniProt Q16222-2 1-505) (enzyme),binding,[1],binds
endogenous UAP1 (from UniProt Q91YN5 1-522) (enzyme),binding,[2],binds
YFP(155-238aa)-UAP1 (from UniProt Q16222 1-522) (enzyme),binding,YFP(1-154aa)-TRIM25,binds
Myc-UAP1 (from UniProt Q16222 1-522) (enzyme),binding,Flag-TRIM25 full-length,binds
same,binding,Flag-TRIM25(Δ439-630aa),no binding
YFP(155-238aa)-GLUL (from UniProt P15104 1-373) (enzyme),binding,YFP(1-154aa)-TRIM25,binds
endogenous GLUL (from UniProt P15105 1-373) (enzyme),binding,[2],binds
HA-GLUL (from UniProt P15104 1-373) (enzyme),binding,Flag-TRIM25 full-length,binds
same,binding,Flag-TRIM25(Δ439-630aa),no binding

# — paper PMC12669651
